Assay results as given in a compilation of properties of binary mixtures (doi:10.1007/s10953-018-0729-9).
The densities may have been worked out from excess volumes.

Test: xn = mol fraction of the nth substance listed
Details: 101.3 kPa

O=C1CCCN1 + CCCC[n+]1ccn(C)c1.F[P-](F)(F)(F)(F)F
mass density (303.15 K, x2 = 0): 1103.1 kg/m3
mass density (303.15 K, x2 = 0.0494): 1134.2 kg/m3
mass density (303.15 K, x2 = 0.1025): 1161.5 kg/m3
mass density (303.15 K, x2 = 0.1503): 1182.2 kg/m3
mass density (303.15 K, x2 = 0.2215): 1209 kg/m3
mass density (303.15 K, x2 = 0.3376): 1249.1 kg/m3
mass density (303.15 K, x2 = 0.4502): 1281.9 kg/m3
mass density (303.15 K, x2 = 0.5654): 1309.4 kg/m3
mass density (303.15 K, x2 = 0.6527): 1326.1 kg/m3
mass density (303.15 K, x2 = 0.8295): 1348.9 kg/m3
mass density (303.15 K, x2 = 0.8622): 1351.8 kg/m3
mass density (303.15 K, x2 = 0.9019): 1355.2 kg/m3
mass density (308.15 K, x2 = 0.1025): 1157.9 kg/m3
mass density (308.15 K, x2 = 0.1503): 1178.6 kg/m3
mass density (308.15 K, x2 = 0.3376): 1245.4 kg/m3
mass density (308.15 K, x2 = 0.4502): 1278.1 kg/m3
mass density (308.15 K, x2 = 0.5654): 1305.6 kg/m3
mass density (308.15 K, x2 = 0.6527): 1322.2 kg/m3
mass density (308.15 K, x2 = 0.7421): 1335.6 kg/m3
mass density (308.15 K, x2 = 0.8295): 1345.1 kg/m3
mass density (308.15 K, x2 = 0.8622): 1348 kg/m3
mass density (308.15 K, x2 = 0.9019): 1351.3 kg/m3
mass density (308.15 K, x2 = 0.9495): 1355.4 kg/m3
mass density (313.15 K, x2 = 0): 1094.9 kg/m3
mass density (313.15 K, x2 = 0.0494): 1126.6 kg/m3
mass density (313.15 K, x2 = 0.1025): 1154.2 kg/m3
mass density (313.15 K, x2 = 0.1503): 1174.9 kg/m3
mass density (313.15 K, x2 = 0.2215): 1201.6 kg/m3
mass density (313.15 K, x2 = 0.3376): 1241.5 kg/m3
mass density (313.15 K, x2 = 0.6527): 1318.3 kg/m3
mass density (313.15 K, x2 = 0.7421): 1331.8 kg/m3
mass density (313.15 K, x2 = 0.8295): 1341.3 kg/m3
mass density (313.15 K, x2 = 0.9019): 1347.5 kg/m3
mass density (313.15 K, x2 = 0.9495): 1351.5 kg/m3
mass density (318.15 K, x2 = 0): 1090.8 kg/m3
mass density (318.15 K, x2 = 0.0494): 1122.8 kg/m3
mass density (318.15 K, x2 = 0.1025): 1150.4 kg/m3
mass density (318.15 K, x2 = 0.1503): 1171.1 kg/m3
mass density (318.15 K, x2 = 0.2215): 1197.8 kg/m3
mass density (318.15 K, x2 = 0.3376): 1237.7 kg/m3
mass density (318.15 K, x2 = 0.4502): 1270.3 kg/m3
mass density (318.15 K, x2 = 0.5654): 1297.7 kg/m3
mass density (318.15 K, x2 = 0.6527): 1314.4 kg/m3
mass density (318.15 K, x2 = 0.7421): 1327.8 kg/m3
mass density (318.15 K, x2 = 0.8622): 1340.3 kg/m3
mass density (318.15 K, x2 = 0.9019): 1343.6 kg/m3
mass density (318.15 K, x2 = 0.9495): 1347.5 kg/m3
mass density (323.15 K, x2 = 0.0494): 1118.9 kg/m3
mass density (323.15 K, x2 = 0.1503): 1167.4 kg/m3
mass density (323.15 K, x2 = 0.2215): 1193.9 kg/m3
mass density (323.15 K, x2 = 0.3376): 1233.8 kg/m3
mass density (323.15 K, x2 = 0.4502): 1266.4 kg/m3
mass density (323.15 K, x2 = 0.5654): 1293.8 kg/m3
mass density (323.15 K, x2 = 0.6527): 1310.5 kg/m3
mass density (323.15 K, x2 = 0.7421): 1323.9 kg/m3
mass density (323.15 K, x2 = 0.8622): 1336.4 kg/m3
mass density (323.15 K, x2 = 0.9019): 1339.7 kg/m3

CCCC[n+]1ccn(C)c1.F[P-](F)(F)(F)(F)F + O=C1CCCN1
mass density (303.15 K, x1 = 1): 1364.6 kg/m3
mass density (308.15 K, x1 = 1): 1360.4 kg/m3
mass density (313.15 K, x1 = 1): 1356.2 kg/m3
mass density (318.15 K, x1 = 1): 1352.1 kg/m3
mass density (323.15 K, x1 = 1): 1348 kg/m3
